Experimental data reported in ChEMBL document CHEMBL1201862, “PubChem BioAssay data set” (2004).
Activity calls are given as the source filed them.

Tests used:
[1] = viability loss in THP-1 monocytes – THP-1 cells, cytotoxicity control for Vif-APOBEC3G degradation inhibitor project, dose response (AID 1117359); format: functional; conditions: THP-1
[2] = target: T1, Nuclear receptor subfamily 0 group B member 1 (Homo sapiens, UniProt P51843); format: functional, cell-based;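 note: HEK293T cells transfected with SF-1 and DAX-1 plus StAR promoter luciferase reporter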
T1 sequence (P51843 whole entry): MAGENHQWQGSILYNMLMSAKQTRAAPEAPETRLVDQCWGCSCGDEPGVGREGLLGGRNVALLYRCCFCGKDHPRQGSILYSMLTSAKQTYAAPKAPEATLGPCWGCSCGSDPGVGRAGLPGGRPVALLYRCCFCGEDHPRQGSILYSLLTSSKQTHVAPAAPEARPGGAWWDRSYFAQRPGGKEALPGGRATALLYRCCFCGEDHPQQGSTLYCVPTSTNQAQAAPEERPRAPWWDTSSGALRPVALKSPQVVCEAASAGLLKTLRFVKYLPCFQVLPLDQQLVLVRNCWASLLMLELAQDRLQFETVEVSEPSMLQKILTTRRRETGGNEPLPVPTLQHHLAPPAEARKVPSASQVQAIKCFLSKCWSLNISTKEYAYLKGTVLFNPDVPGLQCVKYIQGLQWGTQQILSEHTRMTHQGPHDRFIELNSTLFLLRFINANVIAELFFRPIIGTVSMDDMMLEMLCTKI

cells = format: functional, cell-based

COc1c(O)cc2c(c1OC)-c1ccc(OC)c(=O)cc1C(NC(C)=O)CC2 (stereo not drawn)
CC50 [1]: active: > 40 µM | IC50 [2]: inactive: > 67.4 µM | IC50 (cells): inactive: > 67.4 µM
